Data taken from the supplement of paper PMC10338343.
± gives the standard deviation. The full ranking holds about 5,500 sequences; the median of “pre-steady-state target cleavage rate” is about 0.1, and the highest 2% start at about 0.64. Only a part is listed here, and it is no random draw.

tested on: MIWI (PIWIL1) piRISC loaded with piRNA #2 (30 nt); test: pre-steady-state target cleavage rate (min^-1); MIWI and MILI are mouse PIWI proteins and EfPiwi is from a freshwater sponge; tags in brackets are library labels; higher = faster piRNA-guided slicing of the target; details: guide: piRNA #2 5'p-UUAGGUAACCCAGUAGAUCCAGAGGAAUUC; auxiliary factor: 500 nM mouse GTSF1
Procedure, shortened: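 Active affinity-purified piRISC carrying one synthetic guide (1 nM) was mixed with a transcribed, DNA-blocked target RNA library […] in HEPES–potassium acetate buffer at 33 °C for 0–8 or 0–960 min, with or without 500 nM GTSF1 partner protein. Uncleaved targets were then sequenced and normalised to depth and to weakly complementary targets. Three trials were pooled, and k3 was capped at 0.0001 min^-1. A burst-and-steady-state fit was applied to obtain the pre-steady-state cleavage rate.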

Sequence	pre-steady-state target cleavage rate
CAAUUCCUCUCGAUCUACUGGCUUACCUAA	0.203 ± 0.02
CAAUUCCUCUGGAUCUACUGGUUUACCUAA	0.285 ± 0.032
CUUUUCCUCUGGAUCUACUGGCUUAGCUAA	0.00565 ± 0.004
CUUAACCUCUGGAAUCUACUGGGUUACCUAA	0.281 ± 0.032
CUUAAGGUCUGCAUCUACUGGGUUACGUAA	0.279 ± 0.031
CUAUUCAUCUGGAUCUACUGGGUUACCUAA	0.498 ± 0.047
CAAUUCCUGACGAUCUACUGGGUUACCUAA	0.212 ± 0.034
CUAUUCCUCUGGCUCUACUGGGUUACCUAA	0.612 ± 0.042
CUAUCCUCUGGAUCUACUGGGUUACCUAA	0.383 ± 0.059
CUUAUCGUCAGGAUCUACUGGGUUACCUAA	0.134 ± 0.035
CUUAAGCUCAGGAUCUACUGGGUUACCAAA	0.167 ± 0.028
GAAUUCCUCUGGAUCAUACUGGGUUACCUAA	0.0105 ± 0.0044
CUUUUCCUCUGGAUGAACUGGGUUACCUAA	0.28 ± 0.049
CUAUUGGACUGGAUCUACUGGGUUACCUAA	0.22 ± 0.081
CUUAAGGUCAGGAUCUACUGCGUUACCUAA	0.0372 ± 0.013
CUUAACCUCUCGAUCUACUGGGUUACCAAA	0.323 ± 0.033
CUAUGCCUCUGGAUCUACUGGGUUACCUAA	0.275 ± 0.037
CUUAAGGAGUGGAUCCACUGGGUUACCUAA	0.0904 ± 0.015
CUUUUCCUAUGGAUCUACUGGGUUACCUAA	0.566 ± 0.048
CUUUUGCCUCUGGAUCUACUGGGUUACCUAA	0.274 ± 0.039
CUUAAGCUCUGGAUCUACUGGGAAUCCUAA	0.0233 ± 0.0084
CUAUUGCUCUGGAUCAACUGGGUUACCUAA	0.118 ± 0.018
CUUAAGCUCUGGAUCUACUGGGUUACUAA	0.0907 ± 0.012
CUUAACCUCUGGAACUACUCGGUUACCUAA	0.0861 ± 0.0088

Sequence	pre-steady-state target cleavage rate
CUAUUCCUCUGGAUCAAGUGGGUUACCUAA	0.00774 ± 0.0026
CAAUUGGUCUGGAUCUACUGGGUUACCUAA	0.355 ± 0.039
CAAUUCCUCUGGAUCUUCUGGGUUACGUAA	0.397 ± 0.061
CUUAUCCUCUGGAUCUACUGGGUUAGCCUAA	0.445 ± 0.054
CUUAAGCUCUGGAUCUACUGGGUUUGGAUA [g7:g24:cont:t1A]	0.0255 ± 0.01
CUUAAGCUCUGGAUCUACUCGGUUUCCUAA	0.0101 ± 0.0055
CUUAUCCUCAGGAUCUACUGGCUUACCUAA	0.0719 ± 0.019
GAAUUCCACUGGAUCUACUGGGUUACCAAA	0.542 ± 0.065
CUUAAGGAGAGGAUCUACUGUGUUACCUAA	0.205 ± 0.046
CUUAACCUCUGGAUCUACAGGGUUACCUUA	0.149 ± 0.018
CAAUUCCUCUGCAUCUACUGGGUUACGUAA	0.426 ± 0.043
CUUAAGGUCUGCAUGUACUGGGUUACCUAA	0.0864 ± 0.041
CUUAUCCUCUGGAUCUACUGGGUUACCUAU [g2:g26:cont:t1U]	0.339 ± 0.051
GAAUUCCUCUGGAUCAACUGGGAUACCUAA	0.171 ± 0.032
CAAUUCCUCUGGAUCUGCUGGGUUACCUAA	0.641 ± 0.08
GAAUUCCUCUGGAUCUUCUGGGUUACCUAA	0.274 ± 0.047
CUUUUCCUCUGGAUCUACUGGGUUUACCUAA	0.46 ± 0.048
CAAUUCCUCUGGAUCAACUGGGUUACCUAA	0.446 ± 0.049
CUUAAGGAGAGGAUCUACUGGGUUACCGAA	0.00743 ± 0.0071
CUUAAGGUGUGGAACUACUGGGUUACCUAA	0.0339 ± 0.025
CAAUUCCUCUGGGAUCUACUGGGUUACCUAA	0.582 ± 0.05
CUUAAGGAGUGGAUCUACUGGGUUUACCUAA	0.0473 ± 0.013
GAAAUUCCUCUGGAUCUACUGGGUUACCUAA	0.283 ± 0.053
CAAUUGCUCAGGAUCUACUGGGUUACCUAA	0.574 ± 0.044

Sequence	pre-steady-state target cleavage rate
CUUAAGGAGACCUAGAUCUGGCGUUACCUAA	0.00657 ± 0.0014
CUUAUCCUCUGGAUCUACUGGGUUACCUGAA	0.549 ± 0.18
CUUAAGGUCUGGAUGUACUGGGUUACGUAA	0.246 ± 0.07
CAAUUCCUCUGCAACUACUGGGUUACCUAA	0.518 ± 0.048
CUUUUCCUCUGGAUCUACUGGGUUACCAA	0.448 ± 0.061
CUUUUCCUGUGGUUCUACUGGGUUACCUAA	0.208 ± 0.017
CUUAUCCUCUGGAUCUACUGGGUUAACCUAA	0.418 ± 0.05
CUUAAGGAGUGGAUCUACUUGGUUACCUAA	0.0107 ± 0.0047
CUUAAGGAGAGGAUCAACUGGGUUACGUAA	0.00518 ± 0.0036
CUAUUCCUCUGGAACAACUGGGUUACCUAA	0.425 ± 0.044
GAAUUCCUCUGGAUCUACUGGGUUACCUCA	0.278 ± 0.054
CUUAUCCUGUCGAUCUACUGGGUUACCUAA	0.395 ± 0.03
CUUAAGGUCUGGAUCUACGGGGUUACCUAA	0.0508 ± 0.0073
CUUAACGUCUGGAUGUACUGGGUUACCUAA	0.075 ± 0.033
CUAUUCCACUGGAUCUACUGGGUUACCUUA	0.456 ± 0.062
CUUAAGGUCUGGAUCUAGUGCGUUACCUAA	0.0306 ± 0.0086
CUUAACGUCUGGAUCAACUGGGUUACCUAA	0.145 ± 0.017
CUAUUCCUCUGGAUCUUCUGGGUUACCAAA	0.244 ± 0.047
CAAAUCCUCUGGAUCUACUGGGAUACCUAA	0.384 ± 0.054
CUUAACCUCUGGAUCAUACUGGGUUACCUAA	0.00828 ± 0.0033
CAAUUCCUCUGGAUCUACUGGCUUACCAAA	0.0687 ± 0.028
CUAUACCUCUGGAACUACUGGGUUACCUAA	0.468 ± 0.045
CUUAAGGACAGGAUGUACUGGGUUACCUAA	0.0478 ± 0.028
CUAUUCCUCUGGAUCUACUGGGUUACCAAA	0.477 ± 0.061

Sequence	pre-steady-state target cleavage rate
CUUAACCUCUGGUUCUACUGGGUUACGUAA	0.33 ± 0.031
CAAUUCCGCUGGAUCUACUGGGUUACCUAA	0.535 ± 0.052
CUAUUCCUCUGGAUCUACUGGGUGACCUAA	0.285 ± 0.031
CAAUUCCUCUGGAACUACUGCGUUACCUAA	0.376 ± 0.037
CUUAACCUCUGGAUCUACUGGGUAACGUAA	0.167 ± 0.025
CUUAACCUCUGGAUCUACUGGAUUACCUAA	0.259 ± 0.029
CUUUUCCUCUGGCUCUACUGGGUUACCUAA	0.579 ± 0.036
CUUAAGGAGACCUAGUAGACGGUUACCUAA	< 0.0001
CUUAUCCUCUGGAUCUACUGGGUUAGGAAA	0.00867 ± 0.0047
CAAUACCUCUGGAUCUAGUGGGUUACCUAA	0.138 ± 0.022
CUUAUCCUCUGGAUCUACACCGUUACCUAA	0.105 ± 0.015
CUAUUCCUCUGGAUGUUCUGGGUUACCUAA	0.336 ± 0.04
CUUAAGGUCUGGAUCUACUGCGUAACCUAA	0.0411 ± 0.021
CAAUUCCACUGGAUCUACUGGGUUACCUAA	0.551 ± 0.069
CUUAAGGUCUGGGUCUACUGGGUUACCUAA	0.275 ± 0.027
CUUAACCUCUGGUUCAACUGGGUUACCUAA	0.455 ± 0.045
CUUAUCCUGUGGAUCUACUGGGUUUCCUAA	0.181 ± 0.035
CUUAAGCUCUCGAUCUACUGGGAUACCUAA	0.257 ± 0.023
CUUAAGGAGUGGAUUUACUGGGUUACCUAA	0.0327 ± 0.0098
CAAUACCUCUGGAUCUUCUGGGUUACCUAA	0.329 ± 0.046
CUAUACCUCUGCAUCUACUGGGUUACCUAA	0.439 ± 0.042
CUAUUCCUCUGGUUGUACUGGGUUACCUAA	0.505 ± 0.027
CUUUUCCUGUGGAUCUACUCGGUUACCUAA	0.0672 ± 0.009
GAAUUCCUCUGGAUCAACUGGGUUUCCUAA	0.248 ± 0.057

Sequence	pre-steady-state target cleavage rate
GAAUUCCUCUCGAUCUACUGGGUAACCUAA	0.293 ± 0.037
CUUUUCCACUGGAUCUACUGGGAUACCUAA	0.408 ± 0.03
CUAUUCCUGACGAUCUACUGGGUUACCUAA	0.133 ± 0.023
GAUUUCCUCUGGAUCUAGUGGGUUACCUAA	0.0505 ± 0.012
CUUAUCCUCUGGAUCUACUGGGUUACCCUAA	0.327 ± 0.1
GAAUUCCUCUGGAUCUACUGGGUUAGCUAA	0.519 ± 0.062
CAAUUCCUCUGGAUCUACUGGGUUUCGUAA	0.281 ± 0.058
CUUAAGGACAGGAUCUACUGGCUUACCUAA	0.0138 ± 0.013
CUAUUCCUCUGGAUCUACAGGGUUACCUUA	0.214 ± 0.024
CUUAACCUCUGGAUCCUACUGGGUUACCUAA	0.0614 ± 0.0092
CAAUUCCUCAGGAUCUACUGGGUAACCUAA	0.336 ± 0.056
CUUAAGGAGACCAUCUACUGCGUUACGUAA	0.00341 ± 0.002
CUUAAGGAGAGGUAUCUACUGGGUUACCUAA	0.00502 ± 0.0035
CAAAUUCCUCUGGAUCUACUGGGUUACCUAA	0.44 ± 0.05
CUUAAGCUCUCGAUCUACAGGGUUACCUAA	0.185 ± 0.012
CUUUACCUCUGGAUCUACUGGGUUACCUAA	0.255 ± 0.035
CUUAAGGACUGGUUCUACUGGGUUACCUUA	0.028 ± 0.021
CAAUUUCUCUGGAUCUACUGGGUUACCUAA	0.388 ± 0.056
CAAUUCCUCUGGAUGAACUGGGUUACCUAA	0.315 ± 0.049
CUUUUCCUCUGGUUCUACUGGGUUACCAAA	0.217 ± 0.045
CUUAAGGAGACGAUCUAGUGCGUUACCUAA	0.00344 ± 0.0032
CUUAAGCUCUGGAACUACUGGGUUUCCUAA	0.0538 ± 0.011
CUUAACCUCUGGAUUUACUGGGUUACCUAA	0.411 ± 0.037
CUUAAGCUCUGGAUCUACUCGGUUACCUAA	0.0434 ± 0.01

Sequence	pre-steady-state target cleavage rate
CUUAAGGACUGAAUCUACUGGGUUACCUAA	0.0543 ± 0.027
CUUAACCUCUGGUUCUACUGGGUUACCAAA	0.273 ± 0.069
CAAUUCCACUGGAUCUACUGGGUUACCUUA	0.506 ± 0.076
CUUAACCUCUGGAUCUACUGGGUUAUCUAA	0.261 ± 0.03
CUUUUCCUCUGGAUCUCCUGGGUUACCUAA	0.199 ± 0.036
CUUAAGGAGUGGAUCUACUGGGAUACGUAA	0.0243 ± 0.013
CUUUGUCCUCUGGAUCUACUGGGUUACCUAA	0.205 ± 0.038
CUUAUGCACUGGAUCUACUGGGUUACCUAA	0.345 ± 0.029
CUUUUCCUCUGGAUCUACUGGCAUACCUAA	0.00991 ± 0.0033
CUUAACCUCAGGAUGUACUGGGUUACCUAA	0.587 ± 0.053
CUUAACCUCUGGAUGUACUGGGUUAGCUAA	0.12 ± 0.015
CAAUUCCUCUGGAUCUACUGGGUCACCUAA	0.327 ± 0.055
CUAUUCCUCUGGAUCUACUGGGUUACCUA	0.427 ± 0.067
GUAAUUCCUCUGGAUCUACUGGGUUACCUAA	0.0353 ± 0.019
CUAUUCCGCUGGAUCUACUGGGUUACCUAA	0.479 ± 0.047
CUUAAGCUGUGGAUCUACUGGGUAACCUAA	0.0396 ± 0.028
CUUUUCCUCUGGAUCUUCUGGGUUACGUAA	0.42 ± 0.043
CUUAAGGUCUGGAUCAACUGCGUUACCUAA	0.121 ± 0.042
CUUAUCCUCGUGGAUCUACUGGGUUACCUAA	0.161 ± 0.032
GAAUUCCUCUGGAACUUCUGGGUUACCUAA	0.325 ± 0.037
CUAUUCCUCUGGAACUACUGGGUUACCUAA	0.42 ± 0.038
CUUAAGGUCUGGAUCUACUGGGAUACCUUA	0.0489 ± 0.01
CUAUUGCUCUGGAUCUACUGGGUUACGUAA	0.472 ± 0.053
CUUAAGGAGACCUAGUUCUGCGUUACCUAA	0.00336 ± 0.0026
